# In PMC4336329 (PLoS ONE, 2015):
# The campaign covered roughly 310,000 compounds. About 14,000 (4.5%) showed an effect of 50% or more. The effect is printed as a negative number. The list shows a part of the results.
# Target: human ether-à-go-go-related gene (hERG) potassium channel (human, UniProt Q12809)
# Test: primary screen, population patch clamp on CHO cells stably expressing hERG
# 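Further: peak tail current of the secondary pulse compared with the same well before compound.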
# human ether-à-go-go-related gene (hERG) potassium channel, sequence (Q12809 whole entry, looked up): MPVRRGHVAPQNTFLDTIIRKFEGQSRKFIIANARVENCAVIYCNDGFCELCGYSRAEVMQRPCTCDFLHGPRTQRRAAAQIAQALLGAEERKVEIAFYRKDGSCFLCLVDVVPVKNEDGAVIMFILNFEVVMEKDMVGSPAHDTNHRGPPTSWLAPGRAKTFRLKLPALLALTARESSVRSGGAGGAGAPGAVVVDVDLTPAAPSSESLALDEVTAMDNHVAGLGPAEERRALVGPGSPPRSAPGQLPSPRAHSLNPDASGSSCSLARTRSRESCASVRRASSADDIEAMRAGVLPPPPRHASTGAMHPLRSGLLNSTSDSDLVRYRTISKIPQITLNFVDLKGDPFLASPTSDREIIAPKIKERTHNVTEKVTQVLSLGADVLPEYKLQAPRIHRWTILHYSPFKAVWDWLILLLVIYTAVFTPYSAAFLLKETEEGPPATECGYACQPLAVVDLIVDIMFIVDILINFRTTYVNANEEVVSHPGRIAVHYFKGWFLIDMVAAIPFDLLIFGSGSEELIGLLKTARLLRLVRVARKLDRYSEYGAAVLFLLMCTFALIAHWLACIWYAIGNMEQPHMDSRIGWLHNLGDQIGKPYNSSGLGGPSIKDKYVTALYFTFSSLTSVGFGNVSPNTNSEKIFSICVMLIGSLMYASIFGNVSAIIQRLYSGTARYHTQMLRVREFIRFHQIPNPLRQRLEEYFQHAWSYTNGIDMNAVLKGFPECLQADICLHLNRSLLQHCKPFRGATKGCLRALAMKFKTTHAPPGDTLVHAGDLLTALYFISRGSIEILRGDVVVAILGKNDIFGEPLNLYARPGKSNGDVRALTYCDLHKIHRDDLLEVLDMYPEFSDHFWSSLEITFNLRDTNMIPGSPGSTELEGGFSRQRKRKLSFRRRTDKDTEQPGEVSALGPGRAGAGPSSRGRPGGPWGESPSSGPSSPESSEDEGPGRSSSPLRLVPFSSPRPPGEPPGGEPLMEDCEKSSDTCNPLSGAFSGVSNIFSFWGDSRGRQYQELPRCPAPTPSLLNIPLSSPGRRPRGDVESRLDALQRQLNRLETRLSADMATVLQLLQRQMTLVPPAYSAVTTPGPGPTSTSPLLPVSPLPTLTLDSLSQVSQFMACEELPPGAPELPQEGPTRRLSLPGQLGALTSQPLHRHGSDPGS
row,Compound,"hERG current change (%, negative = inhibition) at 10uM"
1,COc1ccc(-c2nc(SCC(=O)NC3CCCCC3)n[nH]2)cc1,-17.7%
2,CN1C(=S)SC(C)(C)C1N(O)C(=O)Nc1ccc(Cl)cc1 (stereo not drawn),11.7%
3,CCN(CC)c1ccc(C(=O)Nn2cnc3ccccc3c2=O)cc1,2.42%
4,CCn1ccc(C(=O)Nc2ccc3c(c2)CCC3)n1,-6.95%
5,Cc1ccc(C(=O)N/C(=C/c2cccs2)C(=O)N2CCCCC2)cc1,-35.4%
6,COCn1c(COc2ccccc2)nc2ccccc21,-10.6%
7,C1COCCO1.O=C(Nc1cccc2ccccc12)C(=O)C1C(=O)Nc2ccccc21 (stereo not drawn),10.7%
8,Cc1ccc(S(=O)(=O)[O-])cc1.Cn1cc[n+](C)c1COc1ccc(C=O)cc1,14.6%
9,FC(F)Oc1ccc(/C=N/n2c(Cc3ccc(Br)cc3)n[nH]c2=S)cc1,11.7%
10,Oc1ccccc1-c1cncn1Cc1ccccc1,-12.8%
11,COc1ccc(CN2C(=O)c3cccnc3C2=O)cc1S(=O)(=O)NCc1ccc(C)o1,2.28%
12,COC(=O)C(CC(=O)c1ccc(Br)cc1)n1cccn1 (stereo not drawn),10.8%
13,CCOC(=O)C1=C(CSc2nc3c(cc2C#N)CN(C)CC3)OC(N)=C(C#N)C1c1ccc(F)cc1 (stereo not drawn),-30.6%
14,COc1cccc(CN2CC(C(=O)N3CCCCCC3)CCC2=O)c1 (stereo not drawn),13.4%
15,COc1ccc(OC)c(NC(=O)CN2C(=O)COc3ccc(S(=O)(=O)N4CCCC4)cc32)c1,-10.6%
16,CSc1cccc(NC(=S)N(Cc2ccc(C)cc2)Cc2cccnc2)c1,-2.68%
17,O=C(c1cc(S(=O)(=O)N2CCN(c3ccccc3)CC2)ccc1Cl)N1CCCCCCC1,-22%
18,COC(=O)c1ccc(C2C(Oc3ccccc3)C(=O)N2CCc2ccc(F)cc2)cc1 (stereo not drawn),15.5%
19,Cc1ccc(S(=O)(=O)C2(C(=O)Nc3ccc(C(C)C)cc3)CC2)cc1,1.08%
20,CC(=O)/C(=N\Nc1ccccc1)Sc1nnc(-c2ccccc2)n1-c1ccccc1,2.65%
21,CCC(=O)Nc1ccc(C(=O)NNC(=O)COc2cc(C)ccc2C)cc1,21.5%
22,O=C(Oc1ccccc1C(=O)Oc1ccccc1)c1ccco1,16.6%
23,CCCOc1ccc(S(=O)(=O)N2C(=O)CC(=O)N(Cc3ccc(OCC)cc3)C2=O)cc1,2.51%

row,Compound,"hERG current change (%, negative = inhibition) at 10uM"
1,O=C(NCCc1ccc(Cl)cc1)/C(=C/c1cccnc1)NC(=O)c1ccccc1,-70.9%
2,CC(=O)c1ccc(OCc2cc(C(=O)NC3CCCCC3)no2)cc1,5.17%
3,Cc1ccc(-n2c(C)cc3c2CC(C)(C)CC3=O)cc1C,10.5%
4,CCSc1nnc(NC(=O)[C@@H](NC(=O)c2ccccc2F)C(C)C)s1,-8.27%
5,COc1cc(S(=O)(=O)N2CCCN(C)CC2)ccc1NC(C)=O,15.8%
6,COc1ccc(/C=C2\SC(=S)N(CCCC(=O)Nc3ccc(C(=O)O)cc3)C2=O)cc1OC,1.9%
7,Cc1cc(NC(=O)c2ccccc2-c2ccccc2)ccc1Br,-6.32%
8,Cc1nn(CC(=O)O)c(=O)c2ccccc12,-2.7%
9,O=C1CCCN2N=C(SCC(=O)Nc3ccc(F)cc3F)SC2=N1,-0.806%
10,CC(=O)n1nc(-c2ccco2)nc1N,16.4%
11,Cc1cc(C)n2nc(SCc3ccccc3)nc2n1,-25.6%
12,CC(=O)c1ccc(NC(=O)/C(=C\c2ccccc2)NC(=O)/C=C/c2ccccc2)cc1,-2.95%
13,CC(=O)C1=C(O)CC(c2ccccc2)CC1=NCCc1ccccc1 (stereo not drawn),-45.8%
14,COc1ccc(/C=N/NC(=O)c2ccc(COc3cccc4cccnc34)cc2)cc1OC,-14.7%
15,O=C(Oc1oc(-c2ccco2)nc1C=Nc1ccc(Cl)cc1)c1ccco1,7.62%
16,COc1cc(OC)cc(C(=O)N(Cc2cc3cc(C)ccc3[nH]c2=O)C(C)C)c1,-7.49%
17,C/C(=N\OCC(=O)Nc1ccccc1C(=O)O)c1cccs1,22.1%
18,Fc1ccccc1Cc1nnc2n1N=C(c1ccc(Cl)cc1)CS2,-10.1%
19,O=C1COc2ccc(C(=O)COC(=O)c3ccccc3[N+](=O)[O-])cc2N1,-4.09%
20,COc1ccc(NC(=S)NC(=O)C2CCC2)cc1,7.29%
21,O=C(CSc1nnnn1C1CCCCC1)NCc1cccs1,11.7%
22,COc1cc(C(O)P(=O)(OC(C)C)OC(C)C)cc(OC)c1OC (stereo not drawn),-8.04%
